Experimental data from PubChem BioAssay AID624417 (National Center for Advancing Translational Sciences (NCATS), 2012).
“And” between values parts separate entries of the source, which are not always exact repeats. Equal entries are not always repeated. In all, about 410,000 compounds went through this assay and about 6,400 (1.6%) were called active. The shares of active, inactive and inconclusive entries below differ from those in the screen. The call rests on the fitted dose curve; in most records, active means well fitted inhibition curve with a large enough effect; inconclusive means small, poorly fitted or top-dose-only effect; inactive means no such curve, though single readings can be large or run the other way. Where the call is inconclusive, the potency comes from a doubtful curve fit.

What follows are molecules tested against Glucagon-like peptide 1 receptor (Homo sapiens) (UniProt P43220) (assay: qHTS of GLP-1 Receptor Inverse Agonists (Inhibition Mode)). Details: HEK293 GLP-1R CRE-luciferase, luminescence, 24 h, GLP-1R form is constitutively active; activity change, negative = inhibition: at 38.3 µM (top of the series) unless noted.
Chain of UniProt P43220 (P43220 whole entry, looked up): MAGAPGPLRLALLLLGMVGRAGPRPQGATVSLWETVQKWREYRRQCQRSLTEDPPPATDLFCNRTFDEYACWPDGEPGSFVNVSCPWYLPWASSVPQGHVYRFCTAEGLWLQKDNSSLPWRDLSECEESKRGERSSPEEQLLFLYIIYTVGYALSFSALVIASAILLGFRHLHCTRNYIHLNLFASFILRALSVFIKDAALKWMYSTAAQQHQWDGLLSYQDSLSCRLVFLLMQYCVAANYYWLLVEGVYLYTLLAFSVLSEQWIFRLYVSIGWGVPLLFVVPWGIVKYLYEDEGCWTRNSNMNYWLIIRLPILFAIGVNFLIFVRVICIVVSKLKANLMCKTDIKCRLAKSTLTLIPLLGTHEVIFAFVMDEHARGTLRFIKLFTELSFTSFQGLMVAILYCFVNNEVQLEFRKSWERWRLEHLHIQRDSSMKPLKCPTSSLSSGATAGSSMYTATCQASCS
In short: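 Assay principle: reduced luminescence from a cAMP-responsive reporter in HEK293 cells co-expressing a constitutively active GLP-1R. Conditions: 24 hr compound incubation, 37 deg C, 5% CO2.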
Further: nearly all actives have a fitted effect of over 55% in size.
On the % scale 0 is the no-effect control and ±100 the full control effect; potency means the concentration at half of the fitted maximal effect; tags describe the fitted curve by direction and shape.

SMILES | Potency | activity change, negative = inhibition
CC(=O)Nc1ccccc1OCCCN1CCC(C(O)(c2ccccc2)c2ccccc2)CC1 | inconclusive: 28.2 µM [inhibitor, single point] | –
COc1ccccc1CCC(=O)Nc1cc(S(=O)(=O)N2CCCCC2)ccc1N1CCN(C)CC1 | inconclusive: 28.2 µM [inhibitor, single point] | –
COC(=O)N/N=C/c1cc(Cl)c(OCc2ccccc2F)c(OC)c1 | active: 10 µM | –
Cc1cc2oc(=O)cc(CSc3nnc(-c4cccs4)o3)c2cc1C(C)C | inconclusive: 12.6 µM [inhibitor, partial curve, poor fit] | –
CC(C)c1nc(C(=O)N2CCc3c([nH]c4ccccc34)C2c2ccccn2)cs1 (configuration not stated) | inconclusive: 28.2 µM [inhibitor, single point] | –
CCc1cccc(NC(=O)C2CCCN(S(=O)(=O)c3c(C)[nH]c(=O)[nH]c3=O)C2)c1 (configuration not stated) | – | inactive: 0.332%
COC1CCCN(Cc2cn(C)nc2-c2ccc(Oc3ccccc3)cc2)C1 (configuration not stated) | inconclusive: 28.2 µM [inhibitor, single point] | –
CC1CCN(S(=O)(=O)c2ccc3c(c2)C(Cl)(Cl)C(=O)N3)CC1 | – | inactive: 10.5%
CCC(CO)Oc1cc(NCc2ccc(C)c(C)c2)c2ncn(C(C)C)c2c1 (configuration not stated) | inconclusive: 12.6 µM [inhibitor, single point] | –
Fc1cccc2sc(Nc3nc4cc5c(cc4s3)OCCO5)nc12 | inconclusive: 20 µM [inhibitor, partial curve, poor fit] | –
O=C(c1ccc2c(=O)n3c(nc2c1)CCCCC3)N1CCN(c2cccc(Cl)c2)CC1 | inconclusive: 4.47 µM [inhibitor, partial curve, poor fit] | –
Cc1ccc(Cn2ccc(NC(=O)c3cc(C4CC4)on3)n2)cc1 | inconclusive: 10 µM [inhibitor, partial curve, poor fit] | –
O=C(COC(=O)c1cc2ccccc2oc1=O)c1cccc([N+](=O)[O-])c1 | – | inactive: -1.78%
Cc1cc(SCC(=O)N(C)C2CCS(=O)(=O)C2)nc2c(C)cccc12 (configuration not stated) | inconclusive: 7.08 µM [inhibitor, partial curve, poor fit] | –
CC(=O)/C(=N\Nc1ccccc1)Sc1cccc2cccnc12 | inconclusive: 14.1 µM [inhibitor, partial curve, poor fit] | –
Cc1cccc(-c2nc(CCNC(=O)Cc3ccccc3)cs2)c1 | inconclusive: 10 µM [inhibitor, partial curve, poor fit] | –
C=CCN(CC=C)C(=O)CN1C(=O)NC(Cc2c[nH]c3ccccc23)C1=O (configuration not stated) | inconclusive: 10 µM [inhibitor, single point] | –
C=CCNC(=S)NC(=O)c1ccc(C)c(Br)c1 | inconclusive: 20 µM [inhibitor, single point] | –
CCc1ccc(/C=N/NC(=O)c2ccccn2)cc1 | inconclusive: 3.16 µM [inhibitor, full curve] | –
Cc1ccc(NC(=O)CSc2ccc(-c3ccccn3)nn2)cc1 | inconclusive: 5.01 µM [inhibitor, full curve] | –
Cc1ccc(C(=O)Nc2ccc3c(c2)OCCO3)cc1 | inconclusive: 2.51 µM [inhibitor, partial curve, poor fit] | –

SMILES | Potency | activity change, negative = inhibition
CC(O)c1nc2ccccc2n1CCCCOc1ccccc1 (configuration not stated) | inconclusive: 11.2 µM [inhibitor, single point] | –
Cc1cc(C)c(C(O)c2ncc(-c3cccc4ccccc34)[nH]2)c(C)c1 (configuration not stated) | inconclusive: 28.2 µM [inhibitor, single point] | –
O=C(C(Sc1ccccc1)c1ccccc1)N1CCN(c2ccccc2F)CC1 (configuration not stated) | inconclusive: 14.1 µM [inhibitor, single point] | –
CCN(CC)c1ccc(NC(=S)NCC2CCCO2)cc1 (configuration not stated) | inconclusive: 11.2 µM [inhibitor, partial curve, poor fit] | –
COc1ccc2c(c1)O[C@@]1(CCCC[C@@H]1C)CC2=O | inconclusive: 20 µM [inhibitor, single point] | –
CN(C)c1ccc(/C=N/NC(=O)C(=O)/C=C2\NC3(CCCC3)Cc3ccccc32)cc1 | inconclusive: 10 µM [inhibitor, partial curve] | –
COc1cc(NC(=O)Nc2ccc(C)cc2)cc([N+](=O)[O-])c1 | inconclusive: 7.94 µM [inhibitor, partial curve, poor fit] | –
Fc1ccc2nc(Nc3nc4cc5c(cc4s3)OCO5)sc2c1 | inconclusive: 20 µM [inhibitor, single point] | –
Cc1ccccc1N/N=C1\CCCNC1=O | – | inactive: -26.5%
CCC1=NN(C(=O)c2cccc([N+](=O)[O-])c2)C(O)(c2ccc(C)cc2)C1 (configuration not stated) | inconclusive: 1.58 µM [inhibitor, full curve, poor fit] | –
COc1cccc(C2CC(c3cccc(Br)c3)n3ncnc3N2)c1 (configuration not stated) | inconclusive: 31.6 µM [inhibitor, single point] | –
O=C(CN1CCN(C/C=C/c2ccccc2)CC1)NCc1ccc(Cl)cc1 | inconclusive: 14.1 µM [inhibitor, partial curve, poor fit] | –
Cc1ccc(NS(=O)(=O)c2ccc(-n3cccn3)cc2)cc1Cl | inconclusive: 31.6 µM [inhibitor, partial curve, poor fit] and inconclusive: 28.2 µM [inhibitor, single point] | –
O=C(CSc1nnc2ccc3ccccc3n12)Nc1ccccc1Cl | – | inactive: 20%
Cc1cccc(NC(=O)NCC(c2ccco2)N2CCCCC2)c1 (configuration not stated) | inconclusive: 8.91 µM [inhibitor, partial curve] | –
COC(=O)NC(=C(Cl)Cl)S(=O)(=O)c1ccccc1 | inconclusive: 28.2 µM [inhibitor, single point] | –
OC(CNCCc1ccc(Cl)cc1)COc1ccc2ccccc2c1 (configuration not stated) | inconclusive: 11.2 µM [inhibitor, partial curve, poor fit] | –
COc1cccc(CNC(=O)c2ccc(-c3nc(COc4ccccc4)c(C)o3)cc2)c1 | inconclusive: 28.2 µM [inhibitor, single point] | –
CCc1ccc(N2CCN(CCNC(=O)Nc3ccccc3)CC2)cc1 | inconclusive: 1 µM [inhibitor, full curve] | –
CCCn1c(=O)c(C(=O)Nc2ncccc2C)c(O)c2ccccc21 | inconclusive: 28.2 µM [inhibitor, single point] | –
COc1ccccc1NC(=O)Nc1ccc(Cc2ccncc2)cc1 | inconclusive: 10 µM [inhibitor, single point] | –

SMILES | Potency | activity change, negative = inhibition
Cc1nn(-c2ccccc2)c(C)c1C(=O)Oc1ccccc1 | inconclusive: 11.2 µM [inhibitor, single point] | –
COc1ccc(/C=N\NC(=O)c2cc(O)c(O)c(O)c2)cc1COc1ccc(C(=O)OCC(C)C)cc1 | inconclusive: 22.4 µM [inhibitor, single point] | –
O=C(C1CCN(S(=O)(=O)c2cccc3nonc23)CC1)N1CCN(c2cccc(Cl)c2)CC1 | inconclusive: 11.2 µM [inhibitor, single point] | –
COc1ccc(NS(=O)(=O)c2ccc(C)c(C(=O)NC3CCN(Cc4ccccc4)CC3)c2)cc1 | inconclusive: 11.2 µM [inhibitor, partial curve, poor fit] | –
COc1ccccc1N1CCN(C(=O)CSc2nnc(-c3ccoc3C)o2)CC1 | inconclusive: 28.2 µM [inhibitor, single point] | –
Cc1nn(-c2ccc(F)cc2)c(-n2cccc2)c1C(=O)NCCc1ccc(Cl)cc1 | inconclusive: 8.91 µM [inhibitor, partial curve, poor fit] | –
Cc1cc(OCCCn2ccnc2)cc(C(C)C)c1 | – | inactive: 2.83%
FC(F)(F)c1cc(-c2ccco2)nc(NCc2cccs2)n1 | inconclusive: 11.2 µM [inhibitor, single point] | –
CCCC(=O)Nc1nc2ccc(NC(=O)c3ccc(Br)o3)cc2s1 | inconclusive: 12.6 µM [inhibitor, partial curve, poor fit] | –
CC1(CCc2ccc3c(c2)OCO3)NCCc2c1[nH]c1ccccc21 (configuration not stated) | inconclusive: 10 µM [inhibitor, partial curve, poor fit] | –
O=C(NCCc1ccccc1)c1cccnc1N1CCCCCC1 | inconclusive: 28.2 µM [inhibitor, single point] | –
CCCCOc1ccc(C2=NC(c3ccncc3)=Nc3ccc(OCC)cc3N2)cc1 | – | inactive: -1.88%
CCCCOc1ccc(C(=O)N/C(=C\c2ccc(OC)cc2)C(=O)OCc2ccco2)cc1 | inconclusive: 11.2 µM [inhibitor, partial curve, poor fit] | –
COc1ccc2sc(N(Cc3cccnc3)C(=O)C3CCCCC3)nc2c1 | inconclusive: 14.1 µM [inhibitor, single point] | –
CCOC(=O)c1cccc(NC(=O)c2cc3ccccn3n2)c1 | inconclusive: 28.2 µM [inhibitor, single point] | –
CCOC(=O)C1(Cc2cccc(Cl)c2)CCCN(C(=O)c2ccoc2C)C1 (configuration not stated) | inconclusive: 10 µM [inhibitor, partial curve, poor fit] | –
CCc1ccc(CNC(=O)Cn2nc(C)n3c(cc4cc(C)ccc43)c2=O)cc1 | – | inactive: 9.75%
CCN(CC)CC(=O)Nc1sc2c(c1C(=O)c1ccccc1C)CCC2 | inconclusive: 11.2 µM [inhibitor, partial curve, poor fit] | –
Cc1cccc(Cn2cccc2CNS(=O)(=O)c2ccccc2F)c1 | inconclusive: 28.2 µM [inhibitor, single point] | –
O=C(c1ccc(F)cc1)C(CCCCCC(CN1CCOCC1)C(=O)c1ccc(F)cc1)CN1CCOCC1 (configuration not stated) | active: 10 µM | –
